Variants at the background level are over-represented here.
B1: TPR 5TU (parent)
chain: GGAUCUUCUCGAUCUAACAAAAAAGACAAAUCUGCCACAAAGCUUGAGAGCAUCUUCGGAUGCAGAGGCGGCAGCCUUCGGUGGCGCGAUAGCGCCAACGUUCUCAACUAUGACACGCAAAACGCGUGCUCCGUUGAAUGGAGUUUAUCAUG

Variants of: B1
Test: polymerase ribozyme fitness, log enrichment relative to wild type (log ratio); higher = more active; in vitro selection for triplet polymerase activity
How it was run: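 Each subunit of a heterodimeric triplet polymerase ribozyme was represented by a PCR-built, transcribed mutant library that underwent triplicate single-round in vitro selection with frozen incubation at −7 °C. Extended constructs were recovered by gel excision, streptavidin-bead capture and RT-PCR, and Illumina sequencing of input and output libraries kept genotypes with ≥10 input reads and ≥1 read per output. Fitness is the logarithm of genotype enrichment relative to wild-type enrichment, from inverse-variance-weighted replicate averages, with a logarithm base of 2.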

Row | Variant | polymerase ribozyme fitness (log ratio)
1 | GGAUCUUCUCGAUCUAACUAAAAAGACAAAUCUGCCACAAAGCUUGAGAGCAUCUUCGGUUGCAGAGGCGGCAGCCUUCGGUGGUGCGAUAGCGCCAACGUUCUCAAUUAUGACACGCAUAACGCGUGCUCCGUUGAAAGGACUUUAUCAUG | ≤ -4.2
2 | GGAUCUUCUCGAUCUAACUAAAAAGACAAAUCUGCCACAAAGCUUGAGAGCAUCUUCGGAUGCAGAGGCGGCGGCCUUCGGUGGCGAGAUAGAGCCAAGGUUCUCAACUAUGACACGCAAAACGCGUGCUCCGUUUAAUGGAGUUUAUCAUG | ≤ -4.2
3 | GGAUCUUCUCGAUCUAACUAAAAAGACAAAUCUGCCACAAAGCUUGAGAGCAUCUUCGGAUGCAGAGGCGGCAGCCUUCGGUGGCGCGAUUGAGCCAACGUUCUCAACUAUGACACGCAAAUCGCGUGCUCCGUUGAAUGGACUUUAUCAUG | ≤ -4.2
4 | GGAUCUUCUCGAUCUAACUAAAAAGAAAAAUCUGCCACAAAGCUUGAGAGCAUCUUCGGAUGCAGAGGCGGCAGCCUUCGGUGGCGCGAUUGCUCCAACGUUCUCAACUAUGACACGCAAAACGCUUGCUCCGUUGAAUGAACUUUAUCAUG | ≤ -4.2
5 | GGAUCUUCUCGAUCUAACUAAAAAGACAAAUAUGCUACAAAGCUUGAGAGCAUCUUCGGAUGCAGAGGCGGCAGCCUUCGGUGGCGCGACAGCGGCAACGUUCUCAACUAUGACACGCAAAACGCGUGCUCCGAUGAAUGGAGUUUAUCAUG | ≤ -4.2
6 | GGAUCUUCUCGAUCUAACUAAAAAGACAAAUAUGCCACAAAGCUUGAGAGCAUCUUCGGAUGCAGAGGCAGCAGCCUUCGGUGACGCGAUAGCGCCAACGUUCUCAACUAUGACACGCAAAACGCGUGCUCCGUUGAAUGGAGUUUAUCAUG | ≤ -4.2
7 | GGAUCUUCUCGAUCUAACUAAAAAGACAAAUAUGCCACAAAGCUUGAGAGCAUCUUCGGAUGCAGAGGCGGCAGCCUUCGGUGACGCGAUAGCGCCAACGUUCUCAACUAUGACACGCAAAACGCGUUCUUCGUUGGAUGGAGUUUAUCAUG | -3.73
8 | GGAUCUUCUCGAUCUAACUAAAAAGACAAAUGUGCCACCAAGCUUGAGAGCAUCUUCGGAUGCAGAGGCGGCAGCCUUCGGUGGCGCGAUAGCGCCAACGUUGUCAACUAUGACACGCAAAACGCGUGCUCCGUUGAAUGGAGUUUAUCAUG | ≤ -4.2
9 | GGAUCUUCUCGAUCUAACUAAAAAGACAAAUUUGCCAUAAAGCUUGAGAGCAUCUUCGGAUGCAAAGGCGGCAGCCUUCGGUGGCGCGAAAGCGACAACGUUCUCAACUAUGACACGCAAAACGCGUGCUCGGUUGAAUGGAGUUUAUCAUG | ≤ -4.2
10 | GGAUCUUCUCGAUCUAACUAAAAAGACAAAUUUGCCACAAAGCUGGAGAGCAUCAACGGAUGCAGAGGCGACAGCCUUCGGUGGCGCUAUAGCGCCAACGUUCUCAACUAUGACAUGCAAAUCGCGUCCUCCGUUGAAUGGAGUUUAUCAUG | ≤ -4.2
11 | GGAUCUUCUCGAUCUAACUAAAAAGACAAAUCUGCCAUAAAGCUUGAGCGCAUCUUCCGAUGCAGAGGCGGCAGCCUUUGGUGGCGCAAUAGCGCCCACGUUCUCAACUAUGACACGCAAAACGCGUGCUCCGUUGAAUGGAGUUUAUCAUG | ≤ -4.2
12 | GGAUCUUCUCGAUCUAACUAAAAAGACAAAUCUGCCAUAAAGCUUGAGAGCAUGUUCGGAUACAGAGGCGGCAGCCUUCGGUGACGCGAUAGCGCCAACGUUCUCAACUAUGACACGCAAAACGCGUGCUCCGUUGAAUGGAGUUUAUCAUG | ≤ -4.2
13 | GGAUCUUCUCGAUCUAACUAAAAAGACAAAUCUGCCACAAAGAUUGCGAGCAUCUUCGGAUGCAGAGGCGGCAGCCUUCGGUAGCGCGAUAGCGCCAACGUUCUCAACUAUGACACGCAAAACGCUUGCUCCGUUGAAUGGAGUUAUUCAUG | ≤ -4.2
14 | GGAUCUUCUCGAUCUAACUAAAAAGACAAAUCUGCCACAAAGGUUGAGAGCAUGUUCGGAUGCAGAGGCGGCAGCCUUCGGUGGCGCGAUGGCGCCAACGUUCUCAACUAUGACACGCAAAACGCGUGCUCCGUUGAAUGGAGUUUAUCAUG | ≤ -4.2
15 | GGAUCUUCUCGAUCUAACUAAAAAGACAAAUCUGCCACAAAGCUUGAGAGAAUCUUCGGAUGCAGAGGCGGCAGCCUUCGGUGGCGCGGUAGCGCCAACAUUCUCAACUAUGACGCGCAAAACGCGUGCUCCGUUGAAUGGAGUUUAUCAUG | ≤ -4.2
16 | GGAUCUUCUCGAUCUAACUAAAAAGACAAAUCUGCCACAAAGCUUGAGAGUAUCUUAGGAUGCUGAGGCGGCAGCCUUCGGUGGCGCGAUAGCACCAACGUUCUCAACUAUGACACGCAAAACGCGUGCUCCGUUGAAUGGAGUUUCUCAUG | ≤ -4.2
17 | GGAUCUUCUCGAUCUAACUAAAAAGACAAAUCUGCCACAAAGCUUGAGAGCAUUUUAGGAUGCAGAGGCGGCAGCCUUCGGUGGCGCGAUAGAACCAACGUUCUCAACUAUGGCACGCAAAGCACGUGCUCCGUUGAAUGGAGUUUAUCAUG | ≤ -4.2
18 | GGAUCUUCUCGAUCUAACUAAAAAGACAAAUCUGCCACAAAGCUUGAGAGCAUCUUGGGAUGCAGAGGCGGCAGCCUUCGGUGGCGCGAUAGCGCCAACGUUCUCAACUAUGACACGCAAAACGCGUGCUCCGUUGAAUGGAGUUUAUCAUG | -1.75
19 | GGAUCUUCUCGAUCUAACUAAAAAGACAAAUCUGCCACAAAGCUUGAGAGCAUCUUCGGAUGCAGAGGAGGCAGCCAUCGGUGGCGCGAUAGCGCCAACGUUCUCAACUAUGACAGGCAAAACGUGUGCUCCGUUGAAUGAAGUUUAUCAUG | ≤ -4.2
